{"source": "paper PMC6861171", "about": "(Science (New York, N.Y.), 2015)", "molecular_target": "T1, CYP719A23 (Sinopodophyllum hexandrum, UniProt L7T8H2)", "T1 sequence (L7T8H2 1-489)": "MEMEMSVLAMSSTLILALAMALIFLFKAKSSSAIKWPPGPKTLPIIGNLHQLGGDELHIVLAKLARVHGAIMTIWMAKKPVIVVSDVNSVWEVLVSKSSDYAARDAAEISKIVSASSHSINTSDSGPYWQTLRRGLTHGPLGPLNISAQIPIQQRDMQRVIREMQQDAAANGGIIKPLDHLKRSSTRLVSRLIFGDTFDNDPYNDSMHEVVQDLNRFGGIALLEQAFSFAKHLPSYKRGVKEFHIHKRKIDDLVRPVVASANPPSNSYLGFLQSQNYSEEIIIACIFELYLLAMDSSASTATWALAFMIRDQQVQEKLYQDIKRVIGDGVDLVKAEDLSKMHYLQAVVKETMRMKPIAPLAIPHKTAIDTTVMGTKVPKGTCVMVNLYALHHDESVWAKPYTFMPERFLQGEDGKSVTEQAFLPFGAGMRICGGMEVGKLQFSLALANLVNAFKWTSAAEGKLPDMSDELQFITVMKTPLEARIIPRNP", "experiment": "expression in N. benthamiana leaves, substrate infiltration, LC-MS", "assay_type": "cell-based", "details": "product (−)-pluviatolide", "data": [{"smiles": "COc1cc(C[C@H]2COC(=O)[C@@H]2Cc2ccc(O)c(OC)c2)ccc1O", "note": "[(−)-matairesinol]", "values": [{"measurement": "expression in N. benthamiana leaves, substrate infiltration, LC-MS", "result": "we infiltrated leaves expressing CYP719A23 with (−)-matairesinol"}]}]}
